Source: the supplement of paper PMC7826260
The list shows a part of the results. The data describe in vitro nicking of single-stranded DNA by Rep domains (1 h at 37 °C, 3 µM enzyme); the outer parts of the 90-letter strands are left off. The score is log2 (uncut reads / reads without enzyme); uncut sequences lie near 0, cut ones below; no hit call is given. Reads are scaled to the total, so uncut sequences can rise above 0 when many others are cut.

System: T1, Rep nickase domain of porcine circovirus 2
T1 sequence (Rep 2-116, printed without the tag): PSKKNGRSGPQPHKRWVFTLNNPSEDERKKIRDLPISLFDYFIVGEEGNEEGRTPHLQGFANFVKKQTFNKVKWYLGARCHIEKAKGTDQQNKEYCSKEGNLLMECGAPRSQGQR
Assay: uncleaved DNA left, log2 of reads against the no-enzyme library (log2 ratio); higher = less cleavage (more negative = more Rep cleavage of the k-mer); sequences stand for … in CTCGTCCG…ACCGGAGA
Description: (§1)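 A pool of 90-nt single-stranded DNAs with seven random bases just before the constant AC of the nick site (name = the seven bases) was cut by 3 µM recombinant His6-SUMO-tagged Rep nickase domain (300 nM DNA, 50 mM HEPES pH 8.0, 50 mM NaCl, 1 mM MnCl2, 1 h, 37 °C, three replicates). Uncut DNA was amplified and sequenced.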

Sequence	uncleaved DNA left (log2)
GTAACTT	0.0202
CTACTTC	0.0461
GCAATAA	0.099
TATATAC	-0.00321
GGTCTGG	0.2
TCAACTT	-0.34
TGGTAGA	0.149
CGCAATG	-0.0327
AACGATA	-0.0812
ACTACGA	0.135
GGGAACC	0.063
GTGATGA	0.0756
TAAGAGT	-0.086
TCCAGAC	0.0907
CGTACAG	0.139
GAAGTTA	0.127
CAAATCA	0.0183
ATCATCG	0.19
CACTGTG	0.12
TAATCGA	0.0904

Sequence	uncleaved DNA left (log2)
AACCCGG	-0.128
CGTGGGC	0.063
ACCTACC	-0.445
CTGTTAT	-2.33
AGAGAGC	0.198
CGTGCAC	-0.0895
TGGCCGC	-0.00488
GACCCGT	-0.000446
AAATAAG	0.135
CTGGACC	-0.132
ATTCCGA	0.0539
TATCTAG	0.117
GCAGCTA	0.0164
TTCGCGA	0.0277
TTGCAGC	0.103
AAAGCCC	0.0123
CCGCCCT	-0.231
GTTTGGC	0.0595
TTTTAAA	0.139
AAGCGGG	0.142

System: T2, Rep nickase domain of tomato golden mosaic virus
T2 sequence (Rep 1-124, printed without the tag): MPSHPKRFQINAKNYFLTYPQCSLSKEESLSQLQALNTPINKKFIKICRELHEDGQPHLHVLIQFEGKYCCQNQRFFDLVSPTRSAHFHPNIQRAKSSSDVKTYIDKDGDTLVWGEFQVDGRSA
Assay: as above
Description: as §1

Sequence	uncleaved DNA left (log2)
GTAACTT	0.00233
CTACTTC	-0.0771
GCAATAA	0.115
TATATAC	0.148
GGTCTGG	0.0837
TCAACTT	0.0364
TGGTAGA	-0.0127
CGCAATG	0.0191
AACGATA	0.0667
ACTACGA	0.0106
GGGAACC	-0.0684
GTGATGA	0.0192
TAAGAGT	-0.223
TCCAGAC	0.0567
CGTACAG	0.059
GAAGTTA	0.126
CAAATCA	0.0418
ATCATCG	0.0184
CACTGTG	-0.0973
TAATCGA	-0.369

Sequence	uncleaved DNA left (log2)
AACCCGG	-0.0371
CGTGGGC	-0.101
ACCTACC	-0.0166
CTGTTAT	-0.216
AGAGAGC	0.0139
CGTGCAC	-0.0711
TGGCCGC	-0.135
GACCCGT	0.0151
AAATAAG	0.0463
CTGGACC	-0.151
ATTCCGA	-0.147
TATCTAG	-0.0884
GCAGCTA	0.127
TTCGCGA	-0.177
TTGCAGC	-0.0842
AAAGCCC	0.0177
CCGCCCT	-0.16
GTTTGGC	-0.0134
TTTTAAA	0.278
AAGCGGG	0.125

System: T3, Rep nickase domain of tomato yellow leaf curl virus
T3 sequence (Rep 1-136, printed without the tag): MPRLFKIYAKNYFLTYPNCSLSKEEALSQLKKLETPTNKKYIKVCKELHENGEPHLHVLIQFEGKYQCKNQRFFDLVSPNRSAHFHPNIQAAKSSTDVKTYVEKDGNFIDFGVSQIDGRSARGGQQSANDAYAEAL
Assay: as above
Description: as §1

Sequence	uncleaved DNA left (log2)
GTAACTT	0.0514
CTACTTC	-0.0886
GCAATAA	0.196
TATATAC	-0.0212
GGTCTGG	0.149
TCAACTT	0.00614
TGGTAGA	0.114
CGCAATG	-0.189
AACGATA	0.00102
ACTACGA	-0.126
GGGAACC	-0.0434
GTGATGA	0.0265
TAAGAGT	-0.105
TCCAGAC	-0.074
CGTACAG	0.0476
GAAGTTA	0.111
CAAATCA	0.0722
ATCATCG	0.0609
CACTGTG	0.12
TAATCGA	0.0378

Sequence	uncleaved DNA left (log2)
AACCCGG	-0.167
CGTGGGC	-0.00284
ACCTACC	0.0234
CTGTTAT	-0.0628
AGAGAGC	-0.0389
CGTGCAC	-0.0599
TGGCCGC	0.0115
GACCCGT	0.0316
AAATAAG	0.0935
CTGGACC	-0.0796
ATTCCGA	-0.0425
TATCTAG	-0.0244
GCAGCTA	-0.0326
TTCGCGA	0.0221
TTGCAGC	-0.125
AAAGCCC	-0.142
CCGCCCT	-0.135
GTTTGGC	0.0223
TTTTAAA	0.205
AAGCGGG	0.0186
